From PMC9911399, “Two distinct binding modes provide the RNA-binding protein RbFox with extraordinary sequence specificity”
Numbering of substitutions follows the chain as printed; changes in the protein carry UniProt numbers. Some of the results follow.

B1: CAAUAAC (DNA:RNA)
RNA: GGGAGACCGGAAUUCAGAUUGUCCCAAUAACUUAAAUCCCGUCGUAGCCACCA
DNA 1: CAATCTGAATTCCGGTCTCCC
DNA 2: TGGTGGCTACGACGGGATT
B2: UCUGACU (DNA:RNA)
RNA: B1 RNA with C25U, A26C, A27U, U28G, A30C, C31U
DNA 1: CAATCTGAATTCCGGTCTCCC
DNA 2: TGGTGGCTACGACGGGATT
B3: CUCGGGC (DNA:RNA)
RNA: B1 RNA with A26U, A27C, U28G, A29G, A30G
DNA 1: CAATCTGAATTCCGGTCTCCC
DNA 2: TGGTGGCTACGACGGGATT
B4: ACUAACG (DNA:RNA)
RNA: B1 RNA with C25A, A26C, A27U, U28A, A30C, C31G
DNA 1: CAATCTGAATTCCGGTCTCCC
DNA 2: TGGTGGCTACGACGGGATT
B5: UCUCUCU (DNA:RNA)
RNA: GGGAGACCGGAAUUCAGAUUGUCCUCUCUCUUUAAAUCCCGUCGUAGCCACCA
DNA 1: CAATCTGAATTCCGGTCTCCC
DNA 2: TGGTGGCTACGACGGGATT
B6: CUACAAC (DNA:RNA)
RNA: B1 RNA with A26U, U28C
DNA 1: CAATCTGAATTCCGGTCTCCC
DNA 2: TGGTGGCTACGACGGGATT
B7: UAGAUUA (DNA:RNA)
RNA: B5 RNA with C26A, U27G, C28A, C30U, U31A
DNA 1: CAATCTGAATTCCGGTCTCCC
DNA 2: TGGTGGCTACGACGGGATT
B8: GCAGACG (DNA:RNA)
RNA: B1 RNA with C25G, A26C, U28G, A30C, C31G
DNA 1: CAATCTGAATTCCGGTCTCCC
DNA 2: TGGTGGCTACGACGGGATT
B9: AAUUCCA (DNA:RNA)
RNA: B1 RNA with C25A, A27U, A29C, A30C, C31A
DNA 1: CAATCTGAATTCCGGTCTCCC
DNA 2: TGGTGGCTACGACGGGATT
B10: UGGCUAG (DNA:RNA)
RNA: B5 RNA with C26G, U27G, C30A, U31G
DNA 1: CAATCTGAATTCCGGTCTCCC
DNA 2: TGGTGGCTACGACGGGATT
B11: UUUGUAA (DNA:RNA)
RNA: B5 RNA with C26U, C28G, C30A, U31A
DNA 1: CAATCTGAATTCCGGTCTCCC
DNA 2: TGGTGGCTACGACGGGATT
B12: ACCGCGA (DNA:RNA)
RNA: B5 RNA with U25A, U27C, C28G, U29C, C30G, U31A
DNA 1: CAATCTGAATTCCGGTCTCCC
DNA 2: TGGTGGCTACGACGGGATT
B13: UAUCCCC (DNA:RNA)
RNA: B5 RNA with C26A, U29C, U31C
DNA 1: CAATCTGAATTCCGGTCTCCC
DNA 2: TGGTGGCTACGACGGGATT
B14: GGCUUGU (DNA:RNA)
RNA: B5 RNA with U25G, C26G, U27C, C28U, C30G
DNA 1: CAATCTGAATTCCGGTCTCCC
DNA 2: TGGTGGCTACGACGGGATT
B15: CCGCAAU (DNA:RNA)
RNA: B1 RNA with A26C, A27G, U28C, C31U
DNA 1: CAATCTGAATTCCGGTCTCCC
DNA 2: TGGTGGCTACGACGGGATT
B16: AAGGGCA (DNA:RNA)
RNA: B1 RNA with C25A, A27G, U28G, A29G, A30C, C31A
DNA 1: CAATCTGAATTCCGGTCTCCC
DNA 2: TGGTGGCTACGACGGGATT
B17: CUCCAGU (DNA:RNA)
RNA: B1 RNA with A26U, A27C, U28C, A30G, C31U
DNA 1: CAATCTGAATTCCGGTCTCCC
DNA 2: TGGTGGCTACGACGGGATT
B18: AUUCCGU (DNA:RNA)
RNA: B5 RNA with U25A, C26U, U29C, C30G
DNA 1: CAATCTGAATTCCGGTCTCCC
DNA 2: TGGTGGCTACGACGGGATT
B19: CGGUCAC (DNA:RNA)
RNA: B1 RNA with A26G, A27G, A29C
DNA 1: CAATCTGAATTCCGGTCTCCC
DNA 2: TGGTGGCTACGACGGGATT
B20: GGUGUGG (DNA:RNA)
RNA: B5 RNA with U25G, C26G, C28G, C30G, U31G
DNA 1: CAATCTGAATTCCGGTCTCCC
DNA 2: TGGTGGCTACGACGGGATT
B21: CCGCGCG (DNA:RNA)
RNA: B5 RNA with U25C, U27G, U29G, U31G
DNA 1: CAATCTGAATTCCGGTCTCCC
DNA 2: TGGTGGCTACGACGGGATT
B22: UCAUGGA (DNA:RNA)
RNA: B1 RNA with C25U, A26C, A29G, A30G, C31A
DNA 1: CAATCTGAATTCCGGTCTCCC
DNA 2: TGGTGGCTACGACGGGATT
B23: GGUGGCU (DNA:RNA)
RNA: B5 RNA with U25G, C26G, C28G, U29G
DNA 1: CAATCTGAATTCCGGTCTCCC
DNA 2: TGGTGGCTACGACGGGATT
B24: CCCUGAA (DNA:RNA)
RNA: B1 RNA with A26C, A27C, A29G, C31A
DNA 1: CAATCTGAATTCCGGTCTCCC
DNA 2: TGGTGGCTACGACGGGATT
B25: UUUGUAG (DNA:RNA)
RNA: B5 RNA with C26U, C28G, C30A, U31G
DNA 1: CAATCTGAATTCCGGTCTCCC
DNA 2: TGGTGGCTACGACGGGATT
B26: UUCUCUA (DNA:RNA)
RNA: B1 RNA with C25U, A26U, A27C, A29C, A30U, C31A
DNA 1: CAATCTGAATTCCGGTCTCCC
DNA 2: TGGTGGCTACGACGGGATT
B27: CUCAAGA (DNA:RNA)
RNA: B1 RNA with A26U, A27C, U28A, A30G, C31A
DNA 1: CAATCTGAATTCCGGTCTCCC
DNA 2: TGGTGGCTACGACGGGATT
B28: UCACGAC (DNA:RNA)
RNA: B1 RNA with C25U, A26C, U28C, A29G
DNA 1: CAATCTGAATTCCGGTCTCCC
DNA 2: TGGTGGCTACGACGGGATT
B29: AUCCACU (DNA:RNA)
RNA: B5 RNA with U25A, C26U, U27C, U29A
DNA 1: CAATCTGAATTCCGGTCTCCC
DNA 2: TGGTGGCTACGACGGGATT
B30: UGACUAG (DNA:RNA)
RNA: B5 RNA with C26G, U27A, C30A, U31G
DNA 1: CAATCTGAATTCCGGTCTCCC
DNA 2: TGGTGGCTACGACGGGATT
B31: CAGGCAU (DNA:RNA)
RNA: B1 RNA with A27G, U28G, A29C, C31U
DNA 1: CAATCTGAATTCCGGTCTCCC
DNA 2: TGGTGGCTACGACGGGATT

molecular target: T1, RBFOX1 RRM RbFoxmut (Fox-RRM*) (Homo sapiens, UniProt Q9NWB1 109-208, R118D;E147R;N151S;E152T); assay: EMSA; HiTS-Eq, 1 nM pool, 10 min; buffer printed only for the single-RNA assays: 10 mM Tris pH 7.5, 150 mM NaCl, 3.4 mM EDTA, 0.001% NP-40, 30 C; settings: tags: His6 N-terminal (pET28a); label: 5' 32P
T1 sequence: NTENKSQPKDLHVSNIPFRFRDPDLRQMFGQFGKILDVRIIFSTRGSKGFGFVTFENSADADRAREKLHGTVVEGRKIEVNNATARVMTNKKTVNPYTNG
How it was run: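 Purified wild-type or mutant RbFox RRM at increasing concentrations was equilibrated with 1 nM of 5′-radiolabelled RNA carrying 7 randomized nucleotides for 10 min in 50 µL. Unbound RNA was separated by 8% native PAGE and sequenced. Relative association constants came from read-count changes of each RNA species compared with the control reaction, normalised to the cognate motif.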

Row | Binder | binding signal
1 | B1 | 0.0948 KA relative to UGCAUGU
2 | B2 | 0.0694 KA relative to UGCAUGU
3 | B3 | 0.0837 KA relative to UGCAUGU
4 | B4 | 0.146 KA relative to UGCAUGU
5 | B5 | 0.067 KA relative to UGCAUGU
6 | B6 | 0.0436 KA relative to UGCAUGU
7 | B7 | 0.109 KA relative to UGCAUGU
8 | B8 | 0.0932 KA relative to UGCAUGU
9 | B9 | 0.0771 KA relative to UGCAUGU
10 | B10 | 0.153 KA relative to UGCAUGU
11 | B11 | 0.152 KA relative to UGCAUGU
12 | B12 | 0.0683 KA relative to UGCAUGU
13 | B13 | 0.0611 KA relative to UGCAUGU
14 | B14 | 0.359 KA relative to UGCAUGU
15 | B15 | 0.0582 KA relative to UGCAUGU
16 | B16 | 0.061 KA relative to UGCAUGU

Row | Binder | binding signal
17 | B17 | 0.144 KA relative to UGCAUGU
18 | B18 | 0.0989 KA relative to UGCAUGU
19 | B19 | 0.0348 KA relative to UGCAUGU
20 | B20 | 0.137 KA relative to UGCAUGU
21 | B21 | 0.143 KA relative to UGCAUGU
22 | B22 | 0.0546 KA relative to UGCAUGU
23 | B23 | 0.113 KA relative to UGCAUGU
24 | B24 | 0.0778 KA relative to UGCAUGU
25 | B25 | 0.165 KA relative to UGCAUGU
26 | B26 | 0.11 KA relative to UGCAUGU
27 | B27 | 0.105 KA relative to UGCAUGU
28 | B28 | 0.0776 KA relative to UGCAUGU
29 | B29 | 0.127 KA relative to UGCAUGU
30 | B30 | 0.114 KA relative to UGCAUGU
31 | B31 | 0.103 KA relative to UGCAUGU
